The labels stand for the following.
B1: GUCCCAU (DNA:RNA)
RNA: GGGAGACCGGAAUUCAGAUUGUCCGUCCCAUUUAAAUCCCGUCGUAGCCACCA
DNA 1: CAATCTGAATTCCGGTCTCCC
DNA 2: TGGTGGCTACGACGGGATT
B2: GUCCCCG (DNA:RNA)
RNA: B1 RNA with A30C, U31G
DNA 1: CAATCTGAATTCCGGTCTCCC
DNA 2: TGGTGGCTACGACGGGATT
B3: GGCGGAU (DNA:RNA)
RNA: B1 RNA with U26G, C28G, C29G
DNA 1: CAATCTGAATTCCGGTCTCCC
DNA 2: TGGTGGCTACGACGGGATT
B4: CUCUUUG (DNA:RNA)
RNA: B1 RNA with G25C, C28U, C29U, A30U, U31G
DNA 1: CAATCTGAATTCCGGTCTCCC
DNA 2: TGGTGGCTACGACGGGATT
B5: GCAUCAA (DNA:RNA)
RNA: B1 RNA with U26C, C27A, C28U, U31A
DNA 1: CAATCTGAATTCCGGTCTCCC
DNA 2: TGGTGGCTACGACGGGATT
B6: CUACAAA (DNA:RNA)
RNA: B1 RNA with G25C, C27A, C29A, U31A
DNA 1: CAATCTGAATTCCGGTCTCCC
DNA 2: TGGTGGCTACGACGGGATT
B7: UCCUUUA (DNA:RNA)
RNA: B1 RNA with G25U, U26C, C28U, C29U, A30U, U31A
DNA 1: CAATCTGAATTCCGGTCTCCC
DNA 2: TGGTGGCTACGACGGGATT
B8: CCUGGGC (DNA:RNA)
RNA: GGGAGACCGGAAUUCAGAUUGUCCCCUGGGCUUAAAUCCCGUCGUAGCCACCA
DNA 1: CAATCTGAATTCCGGTCTCCC
DNA 2: TGGTGGCTACGACGGGATT
B9: AGACCGU (DNA:RNA)
RNA: B1 RNA with G25A, U26G, C27A, A30G
DNA 1: CAATCTGAATTCCGGTCTCCC
DNA 2: TGGTGGCTACGACGGGATT
B10: AGCCCGA (DNA:RNA)
RNA: B1 RNA with G25A, U26G, A30G, U31A
DNA 1: CAATCTGAATTCCGGTCTCCC
DNA 2: TGGTGGCTACGACGGGATT
B11: GGCGCAA (DNA:RNA)
RNA: B1 RNA with U26G, C28G, U31A
DNA 1: CAATCTGAATTCCGGTCTCCC
DNA 2: TGGTGGCTACGACGGGATT
B12: ACAGAGC (DNA:RNA)
RNA: B8 RNA with C25A, U27A, G29A
DNA 1: CAATCTGAATTCCGGTCTCCC
DNA 2: TGGTGGCTACGACGGGATT
B13: AGUUGUG (DNA:RNA)
RNA: B8 RNA with C25A, C26G, G28U, G30U, C31G
DNA 1: CAATCTGAATTCCGGTCTCCC
DNA 2: TGGTGGCTACGACGGGATT
B14: ACGUAAC (DNA:RNA)
RNA: B8 RNA with C25A, U27G, G28U, G29A, G30A
DNA 1: CAATCTGAATTCCGGTCTCCC
DNA 2: TGGTGGCTACGACGGGATT
B15: AGACCAG (DNA:RNA)
RNA: B1 RNA with G25A, U26G, C27A, U31G
DNA 1: CAATCTGAATTCCGGTCTCCC
DNA 2: TGGTGGCTACGACGGGATT
B16: UGAUGCG (DNA:RNA)
RNA: B8 RNA with C25U, C26G, U27A, G28U, G30C, C31G
DNA 1: CAATCTGAATTCCGGTCTCCC
DNA 2: TGGTGGCTACGACGGGATT
B17: GCGCAGC (DNA:RNA)
RNA: B8 RNA with C25G, U27G, G28C, G29A
DNA 1: CAATCTGAATTCCGGTCTCCC
DNA 2: TGGTGGCTACGACGGGATT
B18: ACUCGAC (DNA:RNA)
RNA: B8 RNA with C25A, G28C, G30A
DNA 1: CAATCTGAATTCCGGTCTCCC
DNA 2: TGGTGGCTACGACGGGATT
B19: GGCGGGA (DNA:RNA)
RNA: B8 RNA with C25G, C26G, U27C, C31A
DNA 1: CAATCTGAATTCCGGTCTCCC
DNA 2: TGGTGGCTACGACGGGATT
B20: UUAGGCG (DNA:RNA)
RNA: B8 RNA with C25U, C26U, U27A, G30C, C31G
DNA 1: CAATCTGAATTCCGGTCTCCC
DNA 2: TGGTGGCTACGACGGGATT
B21: AUUGUUG (DNA:RNA)
RNA: B8 RNA with C25A, C26U, G29U, G30U, C31G
DNA 1: CAATCTGAATTCCGGTCTCCC
DNA 2: TGGTGGCTACGACGGGATT
B22: AAGGGGG (DNA:RNA)
RNA: B8 RNA with C25A, C26A, U27G, C31G
DNA 1: CAATCTGAATTCCGGTCTCCC
DNA 2: TGGTGGCTACGACGGGATT
B23: CGGCUAG (DNA:RNA)
RNA: B1 RNA with G25C, U26G, C27G, C29U, U31G
DNA 1: CAATCTGAATTCCGGTCTCCC
DNA 2: TGGTGGCTACGACGGGATT
B24: CUCACGA (DNA:RNA)
RNA: B1 RNA with G25C, C28A, A30G, U31A
DNA 1: CAATCTGAATTCCGGTCTCCC
DNA 2: TGGTGGCTACGACGGGATT
B25: UUCGCUG (DNA:RNA)
RNA: B1 RNA with G25U, C28G, A30U, U31G
DNA 1: CAATCTGAATTCCGGTCTCCC
DNA 2: TGGTGGCTACGACGGGATT
B26: AAUCCUU (DNA:RNA)
RNA: B1 RNA with G25A, U26A, C27U, A30U
DNA 1: CAATCTGAATTCCGGTCTCCC
DNA 2: TGGTGGCTACGACGGGATT
B27: AUCUACC (DNA:RNA)
RNA: B1 RNA with G25A, C28U, C29A, A30C, U31C
DNA 1: CAATCTGAATTCCGGTCTCCC
DNA 2: TGGTGGCTACGACGGGATT
B28: AGUGCUG (DNA:RNA)
RNA: B8 RNA with C25A, C26G, G29C, G30U, C31G
DNA 1: CAATCTGAATTCCGGTCTCCC
DNA 2: TGGTGGCTACGACGGGATT
B29: UCCAAGG (DNA:RNA)
RNA: B8 RNA with C25U, U27C, G28A, G29A, C31G
DNA 1: CAATCTGAATTCCGGTCTCCC
DNA 2: TGGTGGCTACGACGGGATT
B30: GAAGACU (DNA:RNA)
RNA: B1 RNA with U26A, C27A, C28G, C29A, A30C
DNA 1: CAATCTGAATTCCGGTCTCCC
DNA 2: TGGTGGCTACGACGGGATT
B31: UAAUGCG (DNA:RNA)
RNA: B8 RNA with C25U, C26A, U27A, G28U, G30C, C31G
DNA 1: CAATCTGAATTCCGGTCTCCC
DNA 2: TGGTGGCTACGACGGGATT

Changes are numbered by the printed parent chain; changes in the protein carry UniProt numbers. This is one part of the list.

The target in this experiment is T1, RBFOX1 RRM RbFoxmut (Fox-RRM*) (Homo sapiens, UniProt Q9NWB1 109-208, R118D;E147R;N151S;E152T).
T1 sequence: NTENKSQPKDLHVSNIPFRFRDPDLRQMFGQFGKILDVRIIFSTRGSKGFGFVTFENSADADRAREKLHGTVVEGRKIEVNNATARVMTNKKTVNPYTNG
Nature of the experiment: EMSA; HiTS-Eq, 1 nM pool, 10 min; buffer printed only for the single-RNA assays: 10 mM Tris pH 7.5, 150 mM NaCl, 3.4 mM EDTA, 0.001% NP-40, 30 C. The conditions noted are these: tags: His6 N-terminal (pET28a); label: 5' 32P. The method in brief:
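Relative association constants, normalised to the cognate motif, were derived by comparing read counts of each RNA species with those of the control reaction. The RNA sequenced was the free fraction, separated by 8% native PAGE after a 10 min equilibration in 50 µL of 1 nM 5′-radiolabelled RNA (7 randomized nucleotides) with increasing concentrations of purified wild-type or mutant RbFox RRM.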
With B1, the binding signal is 0.0766 KA relative to UGCAUGU.

As for B2, the binding signal was 0.0635 KA relative to UGCAUGU.

Take B3: the binding signal is 0.0987 KA relative to UGCAUGU.

Turning to B4, the binding signal was 0.125 KA relative to UGCAUGU.

For the molecule B5, the binding signal was 0.323 KA relative to UGCAUGU.

B6: the binding signal was 0.044 KA relative to UGCAUGU.

Consider B7, for which the binding signal was 0.0931 KA relative to UGCAUGU.

Consider B8, for which the binding signal was 0.0947 KA relative to UGCAUGU.

On to B9, for which the binding signal was 0.0878 KA relative to UGCAUGU.

For the molecule B10, the binding signal is 0.0896 KA relative to UGCAUGU.

For B11, the binding signal is 0.0809 KA relative to UGCAUGU.

In the case of B12, the binding signal is 0.0994 KA relative to UGCAUGU.

For the molecule B13, the binding signal was 0.175 KA relative to UGCAUGU.

As for B14, the binding signal is 0.113 KA relative to UGCAUGU.

On to B15, for which the binding signal was 0.103 KA relative to UGCAUGU.

B16: the binding signal is 0.141 KA relative to UGCAUGU.

As to B17, the binding signal is 0.0767 KA relative to UGCAUGU.

In the case of B18, the binding signal is 0.0588 KA relative to UGCAUGU.

Turning to B19, the binding signal is 0.0655 KA relative to UGCAUGU.

In the case of B20, the binding signal is 0.113 KA relative to UGCAUGU.

Consider B21, for which the binding signal was 0.19 KA relative to UGCAUGU.

For the molecule B22, the binding signal is 0.086 KA relative to UGCAUGU.

As to B23, the binding signal is 0.107 KA relative to UGCAUGU.

B24: the binding signal was 0.0821 KA relative to UGCAUGU.

With B25, the binding signal is 0.117 KA relative to UGCAUGU.

Consider B26, for which the binding signal is 0.0749 KA relative to UGCAUGU.

As to B27, the binding signal is 0.0752 KA relative to UGCAUGU.

As to B28, the binding signal was 0.139 KA relative to UGCAUGU.

Regarding B29, the binding signal is 0.0683 KA relative to UGCAUGU.

Regarding B30, the binding signal was 0.0406 KA relative to UGCAUGU.

For the molecule B31, the binding signal is 0.0888 KA relative to UGCAUGU.

(Values after publication PMC9911399, “Two distinct binding modes provide the RNA-binding protein RbFox with extraordinary sequence specificity”.)
